# The supplement of paper PMC4604168 (melanoma cell lines)
# The list shows a part of the results. Most values come without repeats; read them as rough.
# How the values were obtained:
# Assay in all cases: cell count relative to DMSO control; melanoma cells; higher = more viable cells
# Conditions in all cases: library dose: standard library concentration; 72 h
# [1] = test system: G361
# [2] = test system: IPC-298
# [3] = test system: IST-MEL1
# [4] = test system: LB2518-MEL
# [5] = test system: LOXIMVI
# [6] = test system: MEL-HO
# [7] = test system: MZ2-MEL
# [8] = test system: MeWo
# [9] = test system: RPMI7951
# [10] = test system: RVH-421
# [11] = test system: SkMel28
# [12] = test system: SkMel2
# [13] = test system: SkMel30
# [14] = test system: SkMel5
# [15] = test system: UACC257
# [16] = test system: UACC62
# [17] = test system: WM115
# [18] = test system: WM1716
# [19] = test system: WM1745
# [20] = test system: WM3526
# 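Further: cells treated in 1,536-well plates, then fixed and DAPI-stained, with nuclei counted from automated high-throughput microscope images.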
Compound,cell count [1] [%],cell count [2] [%],cell count [3] [%],cell count [4] [%],cell count [5] [%],cell count [6] [%],cell count [7] [%],cell count [8] [%],cell count [9] [%],cell count [10] [%],cell count [11] [%],cell count [12] [%],cell count [13] [%],cell count [14] [%],cell count [15] [%],cell count [16] [%],cell count [17] [%],cell count [18] [%],cell count [19] [%],cell count [20] [%]
"CC[C@]1(O)C[C@H]2CN(CCc3c([nH]c4ccccc34)[C@@](C(=O)OC)(c3cc4c(cc3OC)N(C=O)[C@H]3[C@@](O)(C(=O)OC)[C@H](OC(C)=O)[C@]5(CC)C=CCN6CC[C@]43[C@@H]65)C2)C1 [vincristine] + C[As](C)SC[C@H](NC(=O)CC[C@H](N)C(=O)O)C(=O)NCC(=O)O [Darinaparsin] (first compound 0.0005 µM, partner dose 2 µM)",19.6,50.4,34.3,51.8,60.9,40.3,32.2,21.7,13.4,10.3,24.7,12.4,33.5,19.3,49.4,38.5,23.3,14.5,43.2,28.1
"Cc1cn(-c2cc(NC(=O)c3ccc(C)c(Nc4nccc(-c5cccnc5)n4)c3)cc(C(F)(F)F)c2)cn1 [nilotinib] + Cn1cc(C2=C(c3cn(C4CCN(Cc5ccccn5)CC4)c4ccccc34)C(=O)NC2=O)c2ccccc21 [Enzastaurin] (first compound 1 µM, partner dose 4 µM)",69,90.8,74.9,52.2,151,80.2,129,85.5,56.6,50.1,85.1,53,92.8,93.7,114,64.9,89.6,63.3,37.6,81.3
"CN(C)S(=O)(=O)c1ccc2c(c1)/C(=C/c1cc3c([nH]1)CCCC3)C(=O)N2 + C/C(O)=C(\C#N)C(=O)Nc1cc(Br)ccc1Br [LFM-A13] (first compound 2 µM, partner dose 10 µM)",71.6,71.1,89.9,65,120,82.7,96.7,80.9,64.4,108,69.8,71,85.2,58.1,86.8,84.3,62.5,104,50.9,68.9
"COc1cc(Nc2ncc(F)c(Nc3ccc4c(n3)NC(=O)C(C)(C)O4)n2)cc(OC)c1OC [Tamatinib] + Cc1cc(SCc2sc(-c3ccc(C(F)(F)F)c(F)c3)nc2C)ccc1OCC(=O)O [GW0742] (first compound 2 µM, partner dose 10 µM)",78.3,88.9,75.9,122,61.2,75.4,75.2,75.4,69,93.1,69.9,78.1,93.2,55.6,70.6,85.6,91.3,89.1,45.2,82.7
"CN(c1ncccc1CNc1nc(Nc2ccc3c(c2)CC(=O)N3)ncc1C(F)(F)F)S(C)(=O)=O + N.N.[Cl][Pt][Cl] [cisplatin] (first compound 0.4 µM, partner dose 8 µM)",84.8,112,109,87.9,60.2,97,101,96.3,58.7,102,85.3,101,82.5,69.7,72.8,77,86.3,100,63.5,97.4
"NC(=O)Nc1cc(-c2cccc(F)c2)sc1C(=O)N[C@H]1CCCNC1 + Cc1cc(SCc2sc(-c3ccc(C(F)(F)F)c(F)c3)nc2C)ccc1OCC(=O)O [GW0742] (first compound 0.1 µM, partner dose 10 µM)",110,101,91.3,53.3,112,99,91.8,82.3,45.3,128,40.4,88.9,79.6,82.8,96.1,72.6,71.8,73.5,66.7,68.8
"C/C(O)=C(\C#N)C(=O)Nc1cc(Br)ccc1Br + COc1cc(N2CCC(N3CCN(C)CC3)CC2)ccc1Nc1ncc(Cl)c(Nc2ccccc2S(=O)(=O)C(C)C)n1 [NVP-TAE684] (first compound 10 µM, partner dose 0.4 µM)",83.7,90.4,114,105,90.1,86.3,89.4,75.1,75.7,83.4,63.2,69.9,107,71,87.7,98.5,86.5,82.8,80.5,78.7
"Cc1cc(SCc2sc(-c3ccc(C(F)(F)F)c(F)c3)nc2C)ccc1OCC(=O)O + c1cc(-c2cnn3cc(-c4ccc(OCCN5CCCCC5)cc4)cnc23)ccn1 [Dorsomorphin] (first compound 10 µM, partner dose 2 µM)",64.9,90.5,89.5,72.9,92.1,89.6,83.6,77.4,85.7,168,53.8,87.5,80.5,57,63,64.4,73.7,80,65.1,93.1
